Assay results: the antibiotic and cytotoxicity screens of Wong et al. (2023)
The list shows a part of the results.

Assays:
[1] = test system: HSkMC (human skeletal muscle cells); assay: cytotoxicity call (relative viability < 0.9); details: 10 µM
[2] = test system: HepG2; assay: cytotoxicity call (relative viability < 0.9); details: 10 µM
[3] = test system: S. aureus RN4220; assay: growth inhibition call (relative growth <= 0.2); details: 50 µM

Compound	cytotoxicity call [1]	cytotoxicity call [2]	growth inhibition call [3]
CS(=O)(=O)N(CCC#N)Cc1ccco1	inactive	inactive	inactive
COc1ccc(S(=O)(=O)Nc2ccc3c(c2)C(=O)N([C@@H](C)CO)C[C@@H](C)[C@@H](CN(C)S(=O)(=O)c2ccc(C)cc2)O3)cc1	inactive	inactive	inactive
O=C(C[C@@H]1CC[C@H]2[C@@H](COC[C@H](O)CN2C(=O)c2ccncc2)O1)NCc1ccc(-c2ccccc2)cc1	inactive	inactive	inactive
Cc1ccc(S(=O)(=O)Nc2cccc3c2O[C@@H](CN(C)S(=O)(=O)c2cccs2)[C@H](C)CN([C@H](C)CO)C3=O)cc1	inactive	inactive	inactive
CO[C@H]1O[C@H](CO)[C@@H](OC(=O)c2ccc(Br)cc2)[C@@H]2OC(=O)[C@H](Cc3ccccc3)C/C=C/C[C@@H](Cc3ccccc3)C(=O)O[C@@H]12	inactive	inactive	inactive
C[C@H](CO)N1C[C@H](C)[C@H](CN(C)S(=O)(=O)c2cccs2)OCCCC[C@H](C)Oc2ccc(NC(=O)c3ccccc3)cc2C1=O	inactive	inactive	inactive
C[C@H](CO)N1C[C@H](C)[C@@H](CN(C)C(=O)Nc2cccc(C(F)(F)F)c2)OCc2cn(nn2)CCCC1=O	inactive	inactive	inactive
COc1ccccc1C#Cc1ccc2c(c1)O[C@H](CN(C)Cc1ccncc1)[C@@H](C)CN([C@H](C)CO)S2(=O)=O	inactive	inactive	inactive
C[C@H](CO)N1C[C@H](C)[C@@H](CN(C)S(C)(=O)=O)Oc2c(NC(=O)c3nc4ccccc4s3)cccc2C1=O	inactive	inactive	inactive
COc1ccc(cc1)CN1C[C@]2(CCN(CC2)Cc2ccccc2OC)c2c([nH]c3cc(ccc23)OC)[C@@H]1CO	inactive	inactive	inactive
C[C@@H]1CN([C@H](C)CO)C(=O)c2cccc(NC(=O)Nc3ccc(C(F)(F)F)cc3)c2O[C@H]1CN(C)C(=O)NC1CCCCC1	inactive	active	inactive
C[C@H]1CN([C@@H](C)CO)C(=O)c2cccc(NS(C)(=O)=O)c2O[C@@H]1CN(C)Cc1ccc(C(=O)O)cc1	inactive	inactive	inactive
COc1ccc(NC(=O)N(C)C[C@@H]2Oc3c(NC(=O)Nc4ccc(C(F)(F)F)cc4)cccc3C(=O)N([C@@H](C)CO)C[C@@H]2C)cc1	inactive	inactive	active
CCNC(=O)CC[C@@H](N)C(=O)O	inactive	inactive	inactive
C[C@H](CO)N1C[C@H](C)[C@H](CN(C)C(=O)Nc2ccc(F)cc2)Oc2ccc(NS(=O)(=O)c3cn(C)cn3)cc2CC1=O	inactive	inactive	inactive
O=C1C[C@H](c2ccc(-c3ccc(C(F)(F)F)cc3)cc2)C2(C(=O)c3ccccc3C2=O)[C@H](c2ccccc2)C1	inactive	inactive	inactive
Cc1noc(C)c1NC(=O)Nc1ccc2c(c1)C(=O)N([C@H](C)CO)C[C@H](C)[C@@H](CN(C)C(=O)Nc1cccc3ccccc13)O2	inactive	inactive	inactive
O=C(C[C@H]1CC[C@@H]2[C@H](COC[C@H](O)CN2C(=O)Nc2ccc(Cl)cc2)O1)NC1Cc2ccccc2C1	inactive	inactive	inactive
C[C@@H]1CN([C@H](C)CO)C(=O)c2cccc(NC(=O)Nc3ccc(C(F)(F)F)cc3)c2O[C@@H]1CN(C)CC1CCCCC1	active	active	active
CC(C)CC#Cc1cnc2c(c1)C(=O)N([C@H](C)CO)C[C@H](C)[C@@H](CN(C)S(=O)(=O)c1cccs1)O2	inactive	inactive	inactive
COc1ccc(S(=O)(=O)Nc2ccc3c(c2)C(=O)N([C@H](C)CO)C[C@@H](C)[C@H](CN(C)S(=O)(=O)c2ccc(OC)cc2)O3)cc1	inactive	inactive	inactive
O=C(C[C@@H]1C[C@H]2c3cc(NC(=O)Cc4ccncc4)ccc3O[C@H]2[C@@H](CO)O1)NCc1cccc(F)c1	inactive	inactive	inactive
C[C@@H]1CN([C@H](C)CO)C(=O)c2cc(NS(=O)(=O)c3cccs3)ccc2O[C@@H]1CN(C)Cc1ccc(-c2ccccc2)cc1	active	active	inactive
C[C@@H]1CN([C@@H](C)CO)C(=O)Cc2cc(NC(=O)Nc3cccc4ccccc34)ccc2O[C@H]1CN(C)S(=O)(=O)c1ccc(F)cc1	inactive	inactive	inactive
COCC#Cc1ccc2c(c1)O[C@@H](CN(C)C(=O)c1ccccc1F)[C@H](C)CN([C@H](C)CO)S2(=O)=O	inactive	inactive	inactive
CC(C)NC(=O)N(C)C[C@@H]1OCCCC[C@@H](C)Oc2ccc(NC(=O)Nc3cccc4ccccc34)cc2C(=O)N([C@H](C)CO)C[C@@H]1C	inactive	inactive	inactive
C[C@@H]1CCCCO[C@H](CN(C)C(=O)Nc2ccccc2)[C@@H](C)CN([C@H](C)CO)C(=O)c2cc(NS(=O)(=O)c3cccs3)ccc2O1	inactive	inactive	inactive

Compound	cytotoxicity call [1]	cytotoxicity call [2]	growth inhibition call [3]
C[C@@H]1CN([C@H](C)CO)C(=O)c2cc(NC(=O)Nc3cccc4ccccc34)ccc2O[C@H]1CN(C)S(=O)(=O)c1ccc(Cl)cc1	inactive	inactive	inactive
C[C@@H]1CN([C@H](C)CO)C(=O)Cc2cc(NS(=O)(=O)c3cccs3)ccc2O[C@H]1CN(C)CC1CC1	inactive	inactive	inactive
Cc1ccc(S(=O)(=O)Nc2ccc3c(c2)C(=O)N([C@H](C)CO)C[C@@H](C)[C@H](CN(C)Cc2ccncc2)OCCCC[C@H](C)O3)cc1	inactive	inactive	inactive
C[C@H](CO)N1C[C@H](C)[C@H](CN(C)Cc2ccc(C(F)(F)F)cc2)Oc2ccc(NC(=O)Nc3ccccc3)cc2C1=O	inactive	active	inactive
Cc1noc(C)c1S(=O)(=O)Nc1ccc2c(c1)C(=O)N([C@H](C)CO)C[C@@H](C)[C@@H](CN(C)C)OCCCC[C@H](C)O2	inactive	inactive	inactive
NCC[C@H]1CC[C@@H](NC(=O)Cc2ccncc2)[C@@H](CO)O1	inactive	inactive	inactive
O=C(C[C@H]1CC[C@@H]2[C@H](COC[C@H](O)CN2S(=O)(=O)c2ccccc2)O1)NCc1ccc2c(c1)OCO2	inactive	inactive	inactive
COc1ccccc1S(=O)(=O)N[C@H]1CC[C@@H](CCNC(=O)C2CC2)O[C@H]1CO	inactive	inactive	inactive
C[C@@H]1CCCCO[C@H](CN(C)C(=O)Nc2ccc(F)cc2)[C@H](C)CN([C@H](C)CO)C(=O)c2cc(NS(=O)(=O)c3ccc(Cl)cc3)ccc2O1	inactive	inactive	inactive
O=C(C[C@H]1CC[C@@H](NC(=O)Cc2ccccn2)[C@@H](CO)O1)NCCc1ccncc1	inactive	inactive	inactive
C[C@@H]1CN([C@@H](C)CO)C(=O)c2cccc(NS(=O)(=O)c3cccs3)c2O[C@H]1CN(C)Cc1ccncc1	inactive	inactive	inactive
C[C@H]1CN([C@@H](C)CO)C(=O)CCCn2cc(nn2)CO[C@@H]1CN(C)S(=O)(=O)c1ccc2ccccc2c1	inactive	inactive	inactive
COc1ccccc1-c1ccc2n(c1=O)C[C@@H]1[C@@H](CO)[C@H](C(=O)NCC3CC3)N(S(C)(=O)=O)[C@H]21	inactive	inactive	inactive
C[C@H](CO)N1C[C@H](C)[C@H](CN(C)C(=O)Cc2ccccc2)Oc2cc(C#CC3(O)CCCC3)ccc2S1(=O)=O	inactive	inactive	inactive
C[C@@H]1CN([C@H](C)CO)C(=O)Cc2cc(NS(C)(=O)=O)ccc2O[C@H]1CN(C)S(C)(=O)=O	inactive	inactive	inactive
C[C@@H]1CN([C@@H](C)CO)C(=O)Cc2cc(NC(=O)Nc3ccc4c(c3)OCO4)ccc2O[C@@H]1CN(C)C(=O)Nc1ccc(C(F)(F)F)cc1	inactive	inactive	inactive
C[C@H]1CN([C@@H](C)CO)C(=O)c2cccc(NC(=O)c3cnccn3)c2O[C@@H]1CN(C)S(=O)(=O)c1ccc(Cl)cc1	inactive	inactive	inactive
FC(F)(F)c1ccc(/C=N/c2cc(Cl)cc(Cl)c2)cc1	inactive	inactive	inactive
C[C@H](CO)N1C[C@H](C)[C@@H](CN(C)C(=O)Nc2ccc(C(F)(F)F)cc2)Oc2ccc(NC(=O)C3CCCCC3)cc2CC1=O	inactive	inactive	inactive
COc1ccc(C#Cc2ccc3c(c2)[C@]2(C(=O)N3)[C@H](C(=O)N3CCc4cc(OC)c(OC)cc4C3)[C@H]3C(=O)O[C@H](c4ccccc4)[C@H](c4ccccc4)N3[C@@H]2c2ccccc2OCCO)cc1	inactive	inactive	inactive
COc1ccc(NC(=O)Nc2cccc3c2O[C@H](CN(C)CC2CCCCC2)[C@H](C)CN([C@H](C)CO)C3=O)cc1	inactive	inactive	inactive
C[C@H](CO)N1C[C@H](C)[C@@H](CN(C)S(C)(=O)=O)OCCCC[C@H](C)Oc2ccc(NC(=O)Nc3cccc4ccccc34)cc2C1=O	inactive	inactive	inactive
C[C@H](CO)N1C[C@H](C)[C@H](CN(C)Cc2ccc(C(=O)Nc3ccccc3N)cc2)OCCCC[C@H](C)Oc2ccc(NC(=O)C3CCCCC3)cc2C1=O	inactive	inactive	inactive
O=C(C[C@@H]1CC[C@@H](NS(=O)(=O)c2ccccc2F)[C@@H](CO)O1)NCCCN1CCOCC1	inactive	inactive	inactive
COC(=O)c1cc(-c2ccccc2)oc1CN	inactive	inactive	inactive
O=C(N[C@@H]1CC[C@H](CC(=O)N2CCOCC2)O[C@H]1CO)c1ccc2c(c1)OCO2	inactive	inactive	inactive
CO[C@H]1CN(C)C(=O)c2ccc(NS(C)(=O)=O)cc2OC[C@@H](C)N(C(=O)C2CCOCC2)C[C@H]1C	inactive	inactive	inactive
